# The whole screen tested about 340,000 compounds, of which about 12,000 (3.5%) were called active. The inconclusive results got no clear call from the source; some entries with a clear call stand among them for comparison. Calls follow the shape of the dose curve; as a rule, active = well fitted inhibition curve with a large enough effect; inconclusive = small, poorly fitted or top-dose-only effect, or another doubt; inactive = no such curve, though single readings can be large or run the other way. No potency is given beside an inconclusive call; the fits are too rough.
# Assay: qHTS Assay for Inhibitors of Hepatitis C Virus (HCV)
# Conditions: Huh7.5.1 HCVcc-Cre (HCVcc is cell-culture hepatitis C virus) infection, luciferase reporter, 44 h; activity change, negative = inhibition: at 41.8 µM (top of the series)
# Procedure, shortened: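 Whole-lifecycle infectious HCVcc-Cre system; cells 1,000/well, compound then virus (~0.5 moi) added 4 h after plating, 44 h culture. Luciferase read 15 sec following 15 min substrate incubation, room temp.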
# % is scaled to controls: 0 for no effect and ±100 for the full control effect; potency is read from the fitted curve at half-maximal effect; tags tell the direction and shape of the fitted curve.
Structure (SMILES),Potency,"activity change, negative = inhibition"
Cc1ccc(OCCn2c(=O)cnc3ccccc32)cc1,"inconclusive [inhibitor, single point]",
COc1ccc(N(CC(=O)Nc2ccc3c(c2)OCCO3)S(=O)(=O)c2cccc(C)c2)cc1,"inconclusive [inhibitor, partial curve]",
Cc1cccc(-c2noc(-c3ccccc3C(=O)NCC3CCCO3)n2)c1 (stereo unspecified),,inactive: -21.4%
CC(=O)c1cccc(Nc2nc(-c3ccccc3)cs2)c1,active: 2.51 µM,
COc1ccc(OC)c(NC(=S)NCc2ccc(S(N)(=O)=O)cc2)c1,,inactive: 25.4%
O=C(Cc1ccsc1)Nc1ccc(S(=O)(=O)C(F)F)cc1,,inactive: 4.56%
O=C(NCc1ccccc1)c1ccc2nc(N3CCOCC3)sc2c1,"inconclusive [inhibitor, single point]",
Cc1nc2c(c3c1[nH]c1ccccc13)C(=O)CC(C)(C)C2,"inconclusive [inhibitor, partial curve]",
COc1ccc([C@H]2CC(=O)C=C(c3cccc(C#N)c3)C2)cc1,,inactive: 11.5% [at 8.37 µM]
OC(COc1ccc(F)cc1)CN1CCN(CC(O)COc2ccc(F)cc2)CC1 (stereo unspecified),active: 31.6 µM,
O=C(CN1CCN(S(=O)(=O)/C=C/c2ccccc2)CC1)NCC(F)(F)F,,inactive: -16.9%
CCN(CC(O)COCc1ccc(Cl)cc1)C1CCCCC1 (stereo unspecified),"inconclusive [inhibitor, single point]",
COc1ccc(C(=O)NNC(=S)NC(=O)c2ccc(F)cc2)cc1Br,"inconclusive [inhibitor, partial curve]",
COc1cccc(OCC(Cn2cnc3ccccc32)OC(C)=O)c1 (stereo unspecified),"inconclusive [inhibitor, partial curve]",
O=[N+]([O-])c1ccc(Sc2ncccn2)c([N+](=O)[O-])c1,,inconclusive: -83.9% [inhibitor]
C/C(=N\NC(=O)CNC(=O)c1ccc2c(c1)OCCO2)c1ccco1,,inactive: 10.4%
Cc1ccccc1OCCCC(=O)Nc1ccc(N2CCOCC2)cc1,"inconclusive [inhibitor, partial curve]",
O=[N+]([O-])c1ccc(COc2ccc(Br)cc2CN2CCOCC2)cc1,"inconclusive [inhibitor, partial curve]",
Cc1cccn2c(=O)c(C=Nc3ccc(Cl)cc3)c(NCCO)nc12,"inconclusive [inhibitor, partial curve, poor fit]",
O=C(NCCC1CCCCN1S(=O)(=O)c1cccs1)C(=O)Nc1ccccc1 (stereo unspecified),"inconclusive [inhibitor, single point]",
Cc1sc2ncnc(N3CCN(Cc4ccccc4)CC3)c2c1-c1ccc(F)cc1,"inconclusive [inhibitor, single point]",
Cc1ccc(S(=O)(=O)Nc2cc(C(C(=O)OC(C)C)C(=O)C(F)(F)F)c(O)c3ccccc23)c(C)c1 (stereo unspecified),"inconclusive [inhibitor, partial curve]",
Cc1ccc(NC(=O)c2cccc(N3C(=O)CCC3=O)c2)nc1,,inactive: 4.82%

Structure (SMILES),Potency,"activity change, negative = inhibition"
N#CC(C#N)=NNc1ccc(S(=O)(=O)N2CCCC2)cc1,,inactive: 1.34%
CC(C)(C)OC(=O)N1CCC[C@H]1c1nnc(SCc2ccc(Cl)cc2)o1,,inactive: -2.63%
O=C(Nc1ccc(S(=O)(=O)N2CCCCC2)cc1)c1ccc(CN2CCOCC2)cc1,active: 2.82 µM,
O=C1NC(N2CCOCC2)=N/C1=C/c1ccc2c(c1)OCO2,,inactive: 23.1%
COc1ccc(OC)c(CCNC(=O)Cn2cccc2C(=O)c2ccccc2)c1,"inconclusive [inhibitor, single point]",
CC1(C)C=Cc2c(ccc3c2OC[C@@H](c2ccc(O)cc2O)C3)O1,,inactive: -7.33%
COc1ccc(-c2c(-c3ccccc3OC)sc3ccccc23)cc1C=O,"inconclusive [inhibitor, partial curve]",
Cc1cc(Cl)c(S(=O)(=O)N2CCSCC2)cc1OCC(=O)NC1CCCCC1,active: 6.31 µM,
Cc1cc(C(=O)Nc2cccnc2)cs1,,inactive: 12.9%
COc1ccc(C(=O)CN2CCN(S(=O)(=O)c3cccc([N+](=O)[O-])c3)CC2)cc1,"inconclusive [inhibitor, single point]",
COC(=O)CCCNC(=O)CCc1nnc(-c2ccc(-c3ccccc3)cc2)o1,"inconclusive [inhibitor, single point]",
CCc1ccc(OCC(=O)Nc2ccc(-c3cc4ccccc4oc3=O)c(OC)c2)cc1,"inconclusive [inhibitor, partial curve]",
COc1ccc(NC(=O)c2ccc3c(c2)C(=O)N(CC2CCCO2)C3=O)cc1O (stereo unspecified),,inactive: 10.3%
COc1cc(CNc2ccc(S(N)(=O)=O)cc2)ccc1OCC(=O)NC1CCCCC1,,inactive: -24.4%
Cc1ccc(C)c(N2CCN(C(=O)c3cc4sccc4n3C)CC2)c1,"inconclusive [inhibitor, single point]",
O=S(=O)(c1ccc(Br)s1)N1CCc2ccccc2C1,"inconclusive [inhibitor, partial curve]",
Cn1c(=O)[nH]c(=O)c2c1nc(CN1CCN(c3ccc(F)cc3)CC1)n2CCc1ccccc1,,inactive: 0.0132%
Cc1cccc(Nc2nc(N)c([N+](=O)[O-])c(NCc3ccccc3)n2)c1,,inconclusive: -58.8% [inhibitor]
CCOC(=O)c1c(NC(=O)Cc2ccccc2)sc2c1CCN(CC)C2,"inconclusive [inhibitor, partial curve]",
Cc1cnc(C)c(N2CCN(Cc3nc(-c4cccc(F)c4F)oc3C)CC2)n1,"inconclusive [inhibitor, full curve, poor fit]",
Cc1ccc(-c2ccnc3nc(-n4cccc4)nn23)o1,"inconclusive [inhibitor, partial curve]",
CC(C)(C)c1ccc(-n2ncc3c2CCCC3NC(=O)CN2CCOC2=O)cc1 (stereo unspecified),"inconclusive [inhibitor, partial curve]",
CC(C)N(CCCNC(=O)C1CCN(C(=O)c2cc3sccc3n2C)CC1)Cc1ccccc1,"inconclusive [inhibitor, single point]",
